From the DeepSol protein solubility set

Assay: soluble on expression in E. coli; label from the status in PepcDB or PDB records

## GAMGSNIESTLNSVASVKDLANEASKYEIILQKGINQVGLKQYTQVVHKLDDMLEDIQSGQANREENSEFHGILTHLEQLIKRSEAQLRVYFISILNSIKPFDPQINITKKMPFPYYEDQQLGALSWILDYFHGNSEGSIIQDILVGERSKLILKCMAFLEPFAKEISTAKNAPYEKGSSGMNSYTEALLGFIANEKSLVDDLYSQYTESKPHVLSQILSPLISAYAKLFGANLKIVRSNLENFGFFSFELVESINDVKKSLRGKELQNYNLLQDCTQEVRQVTQSLFRDAIDRIIKKANSISTIPSNNGVTEATVDTMSRLRKFSEYKNGCLGAMDNITRENWLPSNYKEKEYTLQNEALNWEDHNVLLSCFISDCIDTLAVNLERKAQIALMPNQEPDVANPNSSKNKHKQRIGFFILMNLTLVEQIVEKSELNLMLAGEGHSRLERLKKRYISYMVSDWRDLTANLMDSVFIDSSGKKSKDKEQIKEKFRKFNEGFEDLVSKTKQYKLSDPSLKVTLKSEIISLVMPMYERFYSRYKDSFKNPRKHIKYTPDELTTVLNQLVR
  soluble on expression in E. coli: soluble
